# Measured values as given in PubChem BioAssay AID651820 (National Center for Advancing Translational Sciences (NCATS), 2012).
# About 12,000 (3.5%) of roughly 340,000 compounds were called active. Inconclusive results, whose numbers are uncertain, are shown with a selection of clear calls. Calls follow the shape of the dose curve; as a rule, active = well fitted inhibition curve with a large enough effect; inconclusive = small, poorly fitted or top-dose-only effect, or another doubt; inactive = no such curve, though single readings can be large or run the other way. No potency is given beside an inconclusive call; the fits are too rough.
# Assay: qHTS Assay for Inhibitors of Hepatitis C Virus (HCV)
# Details: Huh7.5.1 HCVcc-Cre (HCVcc is cell-culture hepatitis C virus) infection, luciferase reporter, 44 h; activity change, negative = inhibition: at 41.8 µM (top of the series)
# How it was run: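 Antiviral activity was scored by luciferase reporter output from cells infected with HCVcc-Cre (~0.5 moi) in presence of compound, 44 h infection period, cells seeded 1,000/well 4 h prior.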
# % is scaled to controls: 0 for no effect and ±100 for the full control effect; potency is read from the fitted curve at half-maximal effect; tags tell the direction and shape of the fitted curve.
Compound,Potency,"activity change, negative = inhibition"
CCN1CCN(c2cc(C)c3cc(NC(=S)N(CC)CC)ccc3n2)CC1,"inconclusive [inhibitor, single point]",–
CCCCn1nc2cc(C(=O)NCc3ccc(OC)cc3)ccc2c1OCC,"inconclusive [inhibitor, single point]",–
Cc1nc(NC(C)C)c2oc3ccccc3c2n1,"inconclusive [inhibitor, single point]",–
CCN1CCN(C(=O)c2sc3ncnc(N4CCc5ccccc5C4)c3c2C)CC1,"inconclusive [inhibitor, partial curve]",–
CCCC(=O)Nc1nc2ccc3nc(C)sc3c2s1,"inconclusive [inhibitor, single point]",–
COc1ccccc1NCC(=O)c1ccc(C)c(C)c1,inactive,–
C#CCOCCOCCOCCNc1nc(N2CCN(C(=O)[C@H]([C@@H](C)CC)n3cc([C@@H](N)CC(C)C)nn3)CC2)nc(N2CCN(C(=O)[C@H]([C@@H](C)CC)n3cc([C@@H](N)CC(C)C)nn3)CC2)n1,inactive,–
Cc1cc(F)ccc1S(=O)(=O)N1CCCCC1CCNC(=O)C(=O)NCc1ccccn1 (stereo not given),"inconclusive [inhibitor, single point]",–
COCCn1cnc2c1c(=O)n(CC(=O)NC(=O)NC(C)(C)C)c(=O)n2Cc1ccccc1,inactive,–
COc1ccc(C(CNC(=O)C(=O)Nc2ccc3c(c2)OCCO3)N2CCN(C)CC2)cc1 (stereo not given),inactive,–
Cc1c(C)n(Cc2ccccc2)c2ncnc(NN)c12,active: 11.2 µM,–
C[C@H](CO)N1C[C@H](C)[C@@H](CN(C)Cc2ccc(Cl)c(Cl)c2)Oc2c(NC(=O)Cc3ccccc3)cccc2C1=O,inactive,–
CCN1CCN(c2ccc(NC(=O)COc3ccc(Cl)cc3C)cc2)CC1,active: 10 µM,–
COc1ccc(CN2C(=O)Cc3c2nc(N)c2c(N)nc(N4CCOCC4)c(C#N)c32)cc1,"inconclusive [inhibitor, single point]",–
Clc1ccsc1-c1ccc2ccccc2n1,"inconclusive [inhibitor, partial curve, poor fit]",–
Cc1nc2sc3c(c2c(=O)n1/N=C/c1ccco1)CCCC3,"inconclusive [inhibitor, full curve, poor fit]",–
O=C(CNC(=O)c1ccc2c(c1)OCO2)N/N=C/c1cc(Br)ccc1O,"inconclusive [inhibitor, single point]",–
CC(=O)c1ccc(-c2ccc(C(=O)N3CCN(c4ccc(F)cc4)CC3)o2)cc1,"inconclusive [inhibitor, single point]",–
O=C(Nc1ccc2nc(N3CCOCC3)sc2c1)c1ccccc1,"inconclusive [inhibitor, partial curve]",–
C=CCNc1nc(-c2ccc(OC)cc2OC)cs1,"inconclusive [inhibitor, partial curve]",–
Cc1cc(/C=C2/C(=O)NN(c3ccccc3)C2=O)c(C)n1-c1ccc(O)cc1,"inconclusive [inhibitor, full curve, poor fit]",–
COC(=O)c1ccccc1NC(=O)N1CCc2ccc(NC(=O)c3ccccn3)cc2C1,"inconclusive [inhibitor, single point]",–
CC1CCN(C(=O)CSc2nc3ccccc3s2)CC1,"inconclusive [inhibitor, partial curve]",–
CC(C)n1c(C(=O)OCC(=O)NCc2ccc3c(c2)OCO3)cc2sccc21,"inconclusive [inhibitor, single point]",–

Compound,Potency,"activity change, negative = inhibition"
CSc1ccccc1NC(=O)CN1CCCCC1C (stereo not given),"inconclusive [inhibitor, partial curve]",–
CCN(Cc1ccncc1)C(=O)c1cc(COc2ccc(OC)cc2Cl)on1,"inconclusive [inhibitor, single point]",–
COc1ccccc1CNS(=O)(=O)c1cc(-c2cc(C)no2)ccc1C(C)C,"inconclusive [inhibitor, partial curve]",–
Cc1ccc(S(=O)(=O)N2CCN(Cc3nnc(-c4c(-c5ccccc5)noc4C)o3)CC2)cc1,"inconclusive [inhibitor, single point]",–
CN1/C(=C\C(=O)CN2C(=O)NC3(CCCCCC3)C2=O)C(C)(C)c2ccccc21,"inconclusive [inhibitor, single point]",–
Cc1ccc2c(C)c(C(=O)N(Cc3ccncc3)CC3CCCO3)oc2c1C (stereo not given),"inconclusive [inhibitor, single point]",–
COc1cccc(C(=O)C2CCCN(Cc3ccc(OC)c(Cn4cncn4)c3)C2)c1 (stereo not given),"inconclusive [inhibitor, single point]",–
Oc1ccccc1-c1nnc(COc2ccccc2)o1,inactive,–
O=C(Nc1cccc(NC(=O)c2cccs2)c1)c1ccc2c(c1)OCCO2,"inconclusive [inhibitor, partial curve]",–
Cc1nc2ccccc2nc1Nc1cccc(Cl)c1,"inconclusive [inhibitor, partial curve]",–
COc1ccc(C)cc1NC(=O)CNC(c1ccccc1)c1ccc(C)cc1 (stereo not given),"inconclusive [inhibitor, partial curve]",–
O=[N+]([O-])c1ccn(-c2nc(-c3ccccc3)cc(C(F)(F)F)n2)n1,"inconclusive [inhibitor, full curve, poor fit]",–
COC(=O)c1cn(C(=O)c2cccc3ccccc23)c2ccccc12,"inconclusive [inhibitor, partial curve]",–
COC/C=C/C1=CC2=CC(=O)C(C)(OC(=O)C3CCCC3)C(=O)C2=CO1 (stereo not given),inactive,–
Cc1ccc(C)c(NC(=O)c2cc(=O)c3ccccc3o2)c1,inactive,–
CC(C)c1nnc(NC(=O)c2ccc3ccccc3c2)s1,inactive,–
COc1ccc(/C=C(/NC(=O)c2ccc(OC)cc2)C(=O)NCCc2c[nH]c3ccccc23)cc1,"inconclusive [inhibitor, partial curve]",–
CCOC(=O)N1CCN(CC(O)COc2ccc3c(c2)CCC3)CC1 (stereo not given),inactive,–
Fc1ccccc1C1CC(c2ccco2)=Nc2ccccc2S1 (stereo not given),inactive,–
CC(C)c1nc(SCC(=O)N2CCCc3ccccc32)c2c(=O)n(C)c(=O)n(C)c2n1,active: 10 µM,–
COc1ccc2c(c1)-c1nc(/N=C/c3ccc(O)cc3)sc1CC2,"inconclusive [inhibitor, single point]",–
COc1ccccc1/C=C/CN1CCN(Cc2ccc(C)o2)C(CCO)C1 (stereo not given),inactive,–
CCn1c2ccccc2c2nnc(SCC(=O)c3ccccc3)nc21,"inconclusive [inhibitor, single point]",–
COc1ccc(NC(C)=O)cc1NC(C)C(=O)Nc1cccc2ccccc12 (stereo not given),"inconclusive [inhibitor, partial curve, poor fit]",–

Compound,Potency,"activity change, negative = inhibition"
COCCN(C(=O)COC(=O)CSc1ccc(Cl)cc1)c1c(N)n(CC(C)C)c(=O)[nH]c1=O,inactive,–
CCOc1ccc(N2CC(C(=O)N3CCCCCC3)CC2=O)cc1 (stereo not given),inactive,–
CCCOc1ccc(-c2nc(C#N)c(NCCCn3ccnc3)o2)cc1,"inconclusive [inhibitor, single point]",–
O=C(O)c1cc(N/N=C/c2c[nH]c3ccccc23)ccc1Cl,inactive,–
Cc1[nH]n(-c2ccccc2)c(=O)c1/C=N/NC(=O)c1ccccc1F,"inconclusive [inhibitor, single point]",–
COc1ccc(/C=C2\N=C(SC)SC2=O)cc1OC,"inconclusive [inhibitor, partial curve]",–
CN(C)c1ccc(NC(=O)Nc2ccc3snnc3c2)cc1,inactive,–
CCCOc1ccc2nc(NC(=O)OC)[nH]c2c1,–,inactive: 5.01% [at 8.37 µM]
CCN(CC)CCN1C2=C(C(=O)CC(C)(C)C2)C(c2cccc(F)c2)C2=C1CC(C)(C)CC2=O,inactive,–
Cc1ccc(NCC(=O)N/N=C\C(Br)=C\c2ccccc2)cc1,"inconclusive [inhibitor, partial curve]",–
Cc1onc(-c2ccccc2Cl)c1C(=O)Oc1cc(N)n(S(=O)(=O)c2ccc(F)cc2)n1,inactive,–
CC(/C=C1\SC(=S)N(NC(=O)c2ccc(C)cc2)C1=O)=C\c1ccccc1,"inconclusive [inhibitor, single point]",–
Cc1cc(C)c(S(=O)(=O)N2CCCCC2CCNC(=O)C(=O)NCCN2CCOCC2)c(C)c1 (stereo not given),"inconclusive [inhibitor, partial curve]",–
CCOc1ccc2nc(N3CCC(C(=O)NCCCN4CCOCC4)CC3)sc2c1,"inconclusive [inhibitor, single point]",–
Cn1c2ccccc2c2n[nH]c(=S)nc21,inactive,–
CN(c1cccc(NC(=O)CCSc2ccccc2)c1)S(C)(=O)=O,inactive,–
CCCNC(=O)CN(c1ccc(F)c(Cl)c1)S(C)(=O)=O,"inconclusive [inhibitor, single point]",–
O=S(=O)(Nn1cnnc1)c1ccc(F)cc1,"inconclusive [inhibitor, partial curve]",–
CC(=O)c1ccc(NC(=O)CSc2nnc(Cn3cnc4ccccc43)o2)cc1,inactive,–
CN(C)c1ccc(C2NC(=O)c3ccccc3N2)cc1 (stereo not given),"inconclusive [inhibitor, single point]",–
S=C(Nc1cccc(Cl)c1)NC1CC2CCCC(C1)N2C1CCCC1 (stereo not given),"inconclusive [inhibitor, single point]",–
CCOC(=O)c1cc(CC)sc1NC(=O)Cc1ccccc1,"inconclusive [inhibitor, full curve, poor fit]",–
